Reference: PMC4336329 (PLoS ONE, 2015)
The campaign covered roughly 310,000 compounds. About 2,200 (0.71%) showed an effect of 50% or more. Effects have a minus sign here. The list shows a part of the results.

Biological target: human ether-à-go-go-related gene (hERG) potassium channel (human, UniProt Q12809)
Assay: primary screen, population patch clamp on CHO cells stably expressing hERG

Sequence of human ether-à-go-go-related gene (hERG) potassium channel (Q12809 whole entry, looked up): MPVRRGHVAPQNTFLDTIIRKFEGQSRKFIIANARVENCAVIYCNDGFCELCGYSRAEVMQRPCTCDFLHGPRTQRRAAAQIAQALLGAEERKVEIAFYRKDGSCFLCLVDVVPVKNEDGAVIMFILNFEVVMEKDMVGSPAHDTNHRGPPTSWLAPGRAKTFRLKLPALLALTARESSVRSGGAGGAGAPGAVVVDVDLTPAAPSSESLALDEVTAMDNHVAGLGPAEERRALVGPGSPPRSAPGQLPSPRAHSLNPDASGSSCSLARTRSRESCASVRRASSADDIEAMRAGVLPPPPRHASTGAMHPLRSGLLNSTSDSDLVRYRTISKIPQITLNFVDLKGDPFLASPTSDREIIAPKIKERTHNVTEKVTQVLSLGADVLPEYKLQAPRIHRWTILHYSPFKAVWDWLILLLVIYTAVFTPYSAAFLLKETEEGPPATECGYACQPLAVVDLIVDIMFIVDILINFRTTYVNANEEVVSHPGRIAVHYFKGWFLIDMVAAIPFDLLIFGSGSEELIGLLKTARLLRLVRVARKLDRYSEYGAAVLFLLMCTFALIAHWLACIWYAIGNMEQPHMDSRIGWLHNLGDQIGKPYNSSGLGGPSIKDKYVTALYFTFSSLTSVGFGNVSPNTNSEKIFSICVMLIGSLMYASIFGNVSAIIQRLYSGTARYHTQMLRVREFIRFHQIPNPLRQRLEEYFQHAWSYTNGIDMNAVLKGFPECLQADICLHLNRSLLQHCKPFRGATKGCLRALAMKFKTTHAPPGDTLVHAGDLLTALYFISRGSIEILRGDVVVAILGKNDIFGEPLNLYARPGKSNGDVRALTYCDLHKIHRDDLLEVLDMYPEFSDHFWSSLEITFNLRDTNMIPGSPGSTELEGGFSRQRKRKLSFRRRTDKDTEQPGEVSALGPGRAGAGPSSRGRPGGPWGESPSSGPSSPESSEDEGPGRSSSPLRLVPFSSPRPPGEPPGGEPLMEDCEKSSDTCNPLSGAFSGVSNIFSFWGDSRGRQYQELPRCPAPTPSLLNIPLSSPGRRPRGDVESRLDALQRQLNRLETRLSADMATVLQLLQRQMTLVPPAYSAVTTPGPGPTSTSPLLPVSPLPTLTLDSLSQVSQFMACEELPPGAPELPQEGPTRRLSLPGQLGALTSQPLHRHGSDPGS

Row | Structure (SMILES) | hERG current change (%, negative = inhibition) at 1uM [%]
1 | O=C(c1cccs1)c1ccc(-c2cccs2)s1 | 1.41
2 | CC(=O)C1C(c2ccccc2)c2c(noc2C)CC1(C)O (centres unmarked) | 11.1
3 | CCOC(=O)CC(NC(=O)Cn1nnc(-c2ccccc2C)n1)c1ccc(OC)cc1 (centres unmarked) | -0.402
4 | CCCCc1nc(S(=O)(=O)c2ccc(Cl)cc2)c(N2CCOCC2)o1 | -31.1
5 | Cc1cc(-c2csc(N)n2)c(C)n1CCc1ccccc1.Cl | 11.6
6 | COc1cc2c(cc1NCc1ccc3c(c1)OCO3)oc1ccccc12 | 18
7 | Nc1nc(SCc2nc3scc(-c4ccccc4)c3c(=O)[nH]2)n[nH]1 | 16.7
8 | Cc1ccc2c(c1)C(=O)C(=O)N2CCCOc1ccccc1 | 6.2
9 | O=c1cc(CSc2ccccn2)c2ccccc2[nH]1 | 1.13
10 | CCOC(=O)c1cnn(-c2nc(-c3ccccc3)cs2)c1C(F)(F)F | 4.82
11 | O=C(NC1CC1)c1ccc(N2CCCCC2)c([N+](=O)[O-])c1 | -12.3
12 | Cc1ccc(NC(=O)NC(=O)COc2ccc(Cl)cc2Cl)c(C)c1 | 9.4
13 | Cc1ccc(C)c(S(=O)(=O)N2CCCOC2CNC(=O)C(=O)NCc2ccc3c(c2)OCO3)c1 (centres unmarked) | 9.55
14 | CC(C)(C)c1ccc(C(=O)NC(CC(=O)O)c2ccc(OC3CCCC3)cc2)cc1 (centres unmarked) | 17.4
15 | CC12CCC3C(CC=C4CC5(CCC43C)OCCO5)C1CCC2=O (centres unmarked) | 6.8
16 | O=C(N/N=C/c1ccccn1)c1ccc([N+](=O)[O-])cc1Cl | 16.5
17 | Oc1c(C(c2ccco2)N2CCOCC2)sc2ncnn12 (centres unmarked) | 10.4
18 | Cc1ccc2[nH]c(CNC(=O)c3ccccc3F)cc2c1 | 8.54
19 | Cc1oc(-c2ccccc2)nc1C(=O)OCC(=O)NC(C)c1ccccc1 (centres unmarked) | 9.25
20 | Nc1cc(=O)n(Cc2ccccc2)c(=O)n1-c1ccc(F)cc1 | 11.5
21 | Cc1ccc(S(=O)(=O)Nc2cc(C(=O)N3CCOCC3)ccc2N2CCCCC2)cc1 | -2.73
22 | O=C(COc1ccccc1)Nc1ccc(S(=O)(=O)N2CCOCC2)cc1 | 19.7

Row | Structure (SMILES) | hERG current change (%, negative = inhibition) at 1uM [%]
23 | CC1CCN(C(=O)c2ccc3c(c2)OCCO3)CC1 | 13.9
24 | OCCC1CN(Cc2ccc3nsnc3c2)CCN1C1CCCCC1 (centres unmarked) | -4.23
25 | Clc1ccsc1-c1ccc2ccccc2n1 | 10.7
26 | O=C(NCCS(=O)(=O)N1CCN(c2ccccc2F)CC1)c1cccs1 | 5.26
27 | Clc1ccc(C2CC(c3ccccc3)Nc3ncnn32)cc1 (centres unmarked) | -38.3
28 | CC(C)(C)OC(=O)N1CCN(C(=O)c2[nH]cnc2C(=O)Nc2cccc(Cl)c2)CC1 | 12.3
29 | O=C(NNC1OC(CO)C(O)C(O)C1O)c1cccnc1 (centres unmarked) | 17.7
30 | Cc1ccc(-c2noc(C3CCCN(S(=O)(=O)c4ccc5ccccc5c4)C3)n2)o1 (centres unmarked) | 12.4
31 | O=C(N/N=C/c1cccs1)C(=O)N1CCCC1 | 7.16
32 | CCCN(CC(=O)Nc1ccccc1C)C(=O)C1CC(=O)N(c2cccc(C)c2C)C1 (centres unmarked) | 7.3
33 | COc1ccc(C(=O)NCCc2c[nH]c3ccccc23)cc1[N+](=O)[O-] | 10.9
34 | Cc1cc(Nc2ccccc2Cl)c2ccccc2n1 | -9.92
35 | CCOC(NC(=O)c1ccccc1)C(NC(=O)c1ccccc1)OCC (centres unmarked) | 5.07
36 | O=C(CCCn1c(=O)[nH]c2cc(Cl)ccc2c1=O)N1CCC2(CC1)OCCO2 | 2.48
37 | O=C(NC1CCN(S(=O)(=O)c2ccccc2F)CC1)c1cccnc1 | 8.55
38 | CN(c1ccccc1)c1nc(N)c([N+](=O)[O-])c(NCc2ccccc2)n1 | 17.3
39 | O=C(COC(=O)c1ccco1)Nc1nc2ccc([N+](=O)[O-])cc2s1 | 3.4
40 | Cc1ccc(CS(=O)(=O)c2ncn[nH]2)cc1 | 21
41 | CN1CCN(CC(=O)Nc2cccc([N+](=O)[O-])c2)CC1 | 5.95
42 | Cc1cccc(NC(=S)N(Cc2cccc(Br)c2)CC2CCC(C(=O)O)CC2)c1 (centres unmarked) | 11.9
43 | CC1=CC(=O)CC(C)(C)C1(O)/C=C/C(C)=C/C(=O)O (centres unmarked) | 9.74
44 | C[N+]1(CN2C(=O)C3C4C=CC(C4)C3C2=O)CCCCC1.[I-] (centres unmarked) | 12.3
